According to paper PMC4336329 (PLoS ONE, 2015):
Among all 310,000 compounds or so, about 2,200 (0.71%) showed an effect of 50% or more. The effect is printed as a negative number. Some of the results follow.

molecular target: human ether-à-go-go-related gene (hERG) potassium channel (human, UniProt Q12809); assay: primary screen, population patch clamp on CHO cells stably expressing hERG
Sequence (Q12809 whole entry, looked up): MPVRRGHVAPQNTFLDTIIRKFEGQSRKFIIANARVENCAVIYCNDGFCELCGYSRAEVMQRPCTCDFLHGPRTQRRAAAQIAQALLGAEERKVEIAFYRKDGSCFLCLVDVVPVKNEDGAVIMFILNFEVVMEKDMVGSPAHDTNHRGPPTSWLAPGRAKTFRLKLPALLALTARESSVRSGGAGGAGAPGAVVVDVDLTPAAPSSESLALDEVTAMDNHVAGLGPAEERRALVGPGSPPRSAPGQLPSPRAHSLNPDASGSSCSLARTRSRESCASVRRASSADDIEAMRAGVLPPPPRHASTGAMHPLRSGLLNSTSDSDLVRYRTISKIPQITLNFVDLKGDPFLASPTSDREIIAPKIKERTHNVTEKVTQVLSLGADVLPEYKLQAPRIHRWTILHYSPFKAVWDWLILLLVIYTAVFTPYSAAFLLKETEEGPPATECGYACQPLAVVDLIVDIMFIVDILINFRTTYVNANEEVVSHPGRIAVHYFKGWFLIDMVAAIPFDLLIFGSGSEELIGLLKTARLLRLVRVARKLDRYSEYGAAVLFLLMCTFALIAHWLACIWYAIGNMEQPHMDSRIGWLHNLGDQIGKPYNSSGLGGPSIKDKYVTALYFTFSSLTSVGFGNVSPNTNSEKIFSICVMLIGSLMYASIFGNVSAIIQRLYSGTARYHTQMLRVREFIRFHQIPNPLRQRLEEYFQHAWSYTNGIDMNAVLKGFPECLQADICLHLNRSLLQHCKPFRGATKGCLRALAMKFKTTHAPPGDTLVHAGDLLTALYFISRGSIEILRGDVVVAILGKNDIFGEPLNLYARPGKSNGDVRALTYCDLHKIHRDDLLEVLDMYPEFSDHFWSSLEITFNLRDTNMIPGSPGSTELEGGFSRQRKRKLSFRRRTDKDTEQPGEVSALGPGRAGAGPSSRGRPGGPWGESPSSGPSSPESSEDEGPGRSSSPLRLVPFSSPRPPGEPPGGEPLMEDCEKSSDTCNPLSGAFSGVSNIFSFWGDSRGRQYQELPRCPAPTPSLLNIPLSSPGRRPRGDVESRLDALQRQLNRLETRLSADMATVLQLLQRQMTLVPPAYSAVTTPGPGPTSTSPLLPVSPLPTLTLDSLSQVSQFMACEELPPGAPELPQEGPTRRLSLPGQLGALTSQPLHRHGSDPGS

SMILES | hERG current change (%, negative = inhibition) at 1uM [%]
O=S(=O)(c1ccc2c(c1)OCCO2)N1CCN(c2nc3ccccc3s2)CC1 | 12.6
CCCCn1c(SCC(=O)O)nc2ccccc21 | 15.2
CCCCCCC(=O)Nc1cc2c(C)cc(=O)oc2cc1C | -6.52
OCC1(Cc2ccccc2Cl)CCN(C/C=C/c2ccccc2)CC1 | -27.8
COc1ccccc1C(=O)Nc1ccc2oc(-c3ccc(F)cc3)nc2c1 | 13.7
O=C(CCc1nnc(CCCCc2ccccc2)o1)NC(c1cccnc1)C(F)(F)F (stereo not drawn) | 10.1
CC(C)(C)OC(=O)CNC(=O)c1[nH]cnc1C(=O)N[C@@H](CCCCNC(=O)OC(C)(C)C)C(=O)OC(C)(C)C | 10.9
O=[N+]([O-])c1ccc(C23CC4CC(CC(O)(C4)C2)C3)cc1 | -1.55
CCCCOP(=O)(c1ccc(N(C)C)cc1)C(O)c1cccnc1 (stereo not drawn) | 3.47
CCOc1ccccc1NC(=O)NNC(=O)CCc1ccc(OC)cc1 | 11.3
CCCS(=O)(=O)c1c(S(=O)(=O)CCC)c2ccc(C(N)=O)cn2c1C(=O)OC | 6.12
Cc1ccc(NC(=O)CSc2nnc(-c3cnccn3)n2Cc2ccco2)cc1 | 1.89
COc1cc(/C=N/NC(=O)c2ccncc2)ccc1OCC(=O)Nc1ccccc1 | -5.29
COc1ccc(S(=O)(=O)n2nc(C)cc2C)c(C)c1C | -2.35
CCOC(=O)c1cc(C#N)c(SCC(N)=O)[nH]c1=O | 9.34
Cc1cc(C)n2nc(SCC(=O)Nc3ccccc3)nc2n1 | 6.75
CCOc1cccc(-c2cc(=O)[nH][nH]2)c1 | 1.42
COc1cccc(OC)c1C(=O)NCCSC1CCCCC1 | 6.36
Cc1ccc(CNC(=O)c2ccc(N3CCc4ccccc43)c([N+](=O)[O-])c2)cc1 | 9.23
Cc1ccc(N2C(=O)N(CC(=O)N3CCOCC3)C(=O)C2C)cc1 (stereo not drawn) | 0.183
O=C(O)CCCC(=O)NCCCc1ccccc1 | 1.9
O=C(NCCc1c[nH]c2ccccc12)C(=O)NCC1OCCCN1S(=O)(=O)c1ccc(F)cc1 (stereo not drawn) | 15.5
O=C(O)CNS(=O)(=O)c1ccc2c(c1)CCCC2 | 12.6

SMILES | hERG current change (%, negative = inhibition) at 1uM [%]
NS(=O)(=O)c1cccc(NC(=O)COC(=O)CN2C(=O)c3ccccc3C2=O)c1 | 3.65
CCc1noc(C)c1C(=O)Nc1nc(-c2cccs2)cs1 | 8.51
Cc1ccc(C(=O)Nc2sc(C)c(-c3ccccc3)c2C(N)=O)cc1[N+](=O)[O-] | 14.7
CSc1cccc(NS(=O)(=O)c2cccc3nsnc23)c1 | 8.67
COCCNC(=S)N/N=C(\C)c1ccc(Cl)c(Cl)c1 | 13.3
Cc1ccc(CNC(=O)C2CCCN2S(=O)(=O)c2ccc(Cl)cc2)cc1 (stereo not drawn) | -3.52
COCCNC(=O)C1(C(F)(F)F)CC(CCCO)CCCO1 (stereo not drawn) | 13.4
Cc1ccc(S(=O)(=O)NCCCNC(=O)N2CCOCC2)cc1 | 6.02
O=C(O)c1cccc(NC(=S)NC(NC(=O)c2ccccc2[N+](=O)[O-])C(Cl)(Cl)Cl)c1 (stereo not drawn) | 7.88
CC(C)CCC(CCNCc1ccccn1)c1ccc(Cl)cc1 (stereo not drawn) | -40.7
O=C(CSc1nc2ccccc2s1)Nc1ccc(N2CCOCC2)c(Cl)c1 | 19.5
Cc1nc2c([nH]c3ccc(Br)cc32)s1 | 10.4
CC(C)(C)N(Cc1ccccc1)C(=O)COC(=O)CNS(=O)(=O)c1ccc2ccccc2c1 | 12.8
NC(=S)N/N=C\c1ccc(-c2cccc(Cl)c2Cl)o1 | 8.81
O=C(NCc1nnc(SCC(=O)N2CCCCCC2)o1)c1ccc(F)cc1 | 16.3
CC1=C(C)/C(=N/OC(=O)c2cccc([N+](=O)[O-])c2)C=CC1=O | 9.77
CCCCCCNS(=O)(=O)c1ccc(NC(=O)C2CCCO2)cc1 (stereo not drawn) | 8.57
COc1cc(OC)cc(C(=O)N[C@H](C(=O)OCC(=O)NC(=O)NC(C)(C)C)C(C)C)c1 | 4.51
C[C@@H](NC(=O)CN1C(=O)c2ccccc2S1(=O)=O)c1ccccc1 | 12.9
O=c1oc2c(CN3CCOCC3)c(O)ccc2c2c1CCC2 | 10.3
Cc1cc(C)c(S(=O)(=O)Nc2ccc(O)cc2)cc1C | -5.28
Cc1cc(C)c2c(CN3CCOCC3)cc(=O)oc2c1C | 5.52
c1ccc(NC2=Nc3ccccc3CS2)cc1 | 21

SMILES | hERG current change (%, negative = inhibition) at 1uM [%]
CCCCN(C)C(=O)C1CCN(Cc2ccccn2)CC1.O=C(O)C(=O)O | 6.35
CC1C(=O)N2CCCc3cc(S(=O)(=O)Nc4ccccc4F)cc1c32 (stereo not drawn) | 6.14
CCC(CC)NC(=O)c1cccc(Br)c1 | 3.15
CCOC(=O)c1nc(C)n(-c2ccc(Cl)cc2Cl)n1 | 13.2
Cc1ccc(C(=O)N2CCN(C(=O)CN3CCCC3)C2)cc1 | 7.96
COC1CCN(C(=O)C2CCC(=O)N(CCc3cccc(F)c3)C2)CC1 (stereo not drawn) | 14.3
COc1ccc(-c2cn3c(C)c(C(=O)Nc4ccncc4)sc3n2)cc1 | 2.25
O=C(CC1C(=O)NC2CCCCC2N1C(=O)c1ccc(F)cc1)Nc1ccccc1 (stereo not drawn) | 14.3
CCCC(CCC)=NNC(=O)CN(Cc1ccccc1)S(=O)(=O)c1ccccc1 | 13.6
CC(C)[C@H](NC(=O)c1nn(Cc2ccccc2)c(=O)c2ccccc12)C(=O)O | 5.2
Cc1ccc(N2C(=O)C3C4C=CC(CC4)C3C2=O)c([N+](=O)[O-])c1 (stereo not drawn) | 10.6
COc1ccc(CNS(=O)(=O)c2ccc(C)cc2)cc1 | 10.4
Cc1ccc(S(=O)(=O)NCCc2nnc3ccc(SCc4cccnc4)nn23)cc1 | 9.2
O=C1NC(=O)c2c(NC(=O)C3CCCO3)cccc21 (stereo not drawn) | 4.27
O=C(c1cc2ccccc2[nH]1)N1CCOCC1 | 11.2
CC1(C)CC(=O)C(C=NCCC2=CCCCC2)=C(O)C1 | 22.6
COc1ccc2nc(SCC(=O)Nc3ccccc3C#N)[nH]c2c1 | 1.06
N#CC(C(=O)C12CC3CC(CC(C3)C1)C2)c1nc2ccccc2[nH]1 (stereo not drawn) | 13.8
Cc1cccc(N2CCN(C(=O)C3CCN(c4ncnc5c4nc4n5CCCCC4)CC3)CC2)c1C | 10.2
CCCCCNC(=O)c1ccc2c(=O)n(CCOC)c(=O)[nH]c2c1 | 13.1
CCOC(=O)c1c(S(=O)(=O)NCC(=O)Nc2ccc(F)cc2)c(C)n(C)c1C | 15.8
O=C(CSc1ccc(-c2ccccn2)nn1)Nc1ccc(F)cc1F | 8.3
O=C(NC(=S)Nc1ccccc1C(=O)O)c1ccc2ccccc2c1 | 3.33

SMILES | hERG current change (%, negative = inhibition) at 1uM [%]
CN1C(=S)SC(/[N+]([O-])=C\c2ccccc2)C1(C)C (stereo not drawn) | 8.38
CCOc1ccc(-c2nc(S(=O)(=O)c3ccccc3)c(N3CCC(C(N)=O)CC3)o2)cc1 | 9.14
[O-]/[N+](=C\c1ccc(F)cc1)c1ccccc1 | 13
Cc1cc(S(=O)(=O)N2CCOCC2)ccc1OCC(=O)N1CCC(C)CC1 | 12.8
COc1ccc(C(=O)/C=C/c2ccc(-c3ccccc3)cc2)cc1CSCC(=O)O | 100
O=C(Nc1ccccc1N1CCOCC1)c1ccc(Br)o1 | 7.65
COc1ccc(NC(=O)COc2ccccc2Cc2ccccc2)cc1S(N)(=O)=O | 16.3
CCOC(=O)C(C(=O)N(C)Cc1ccccc1)C1CCCCC1 (stereo not drawn) | 13.1
COc1ccc(CCCc2nnc(SCc3nc4ccccc4c(=O)[nH]3)n2C)cc1C | -2.88
O=C(Nc1ccncc1)Nc1ccc(Br)cc1Cl | 18.7
O=C(NC(=S)NC(c1ccccc1)c1ccncc1)c1ccccc1 (stereo not drawn) | 7.67
O=C(O)c1cccnc1SCC(=O)C12CC3CC(CC(C3)C1)C2 | 4.38
N#CCCN1CCN(Cn2c3ccccc3c3ccccc32)CC1 | 8.13
COc1ccc(/C=N/N(C)C2=NS(=O)(=O)c3ccccc32)cc1OC | 10.8
CCSc1nnc(NC(=O)CSc2nc(CC)nc3c2c(=O)n(C)c(=O)n3C)s1 | 14.2
COc1ccc(CNC(=O)CCSCc2cccc(F)c2)cc1 | 7.46
CCCCNC(=S)N(C)/N=C/c1ccc(OCc2ccc(C(=O)OC)cc2)c(OC)c1 | 9.6
Cc1ccccc1-n1ncc2c1CC(C)(C)CC2NC(=O)c1ccncc1 (stereo not drawn) | -7.67
CCOc1ccc2[nH]c(=O)c(CN(CCOC)C(=O)N3CCOCC3)cc2c1 | 11.7
CC(C)(C)OC(=O)NCCCCCNC(=O)c1nc[nH]c1C(=O)N1CCN(C(=O)OC(C)(C)C)CC1 | 13.7
Cl.Cn1c(=O)c2c(nc(N3CCCCC3)n2CCNC2=NCCC2)n(C)c1=O | 8.12
